Reference: the supplement of paper PMC10338343
± gives the standard deviation. Whole data set: some 3,700 sequences, median “pre-steady-state target cleavage rate” near 0.02, cut for the highest 2% near 0.23. Only a part is listed here, and it is no random draw.

These sequences were tested on MILI (PIWIL2) piRISC loaded with Kctd7 piRNA (26 nt) (assay: pre-steady-state target cleavage rate (min^-1); MIWI and MILI are mouse PIWI proteins and EfPiwi is from a freshwater sponge; tags in brackets are library labels; higher = faster piRNA-guided slicing of the target). Details: guide: Kctd7 piRNA 5'p-UGUUAAUCUCUCAGAGAAGGUGACAG; auxiliary factor: 500 nM mouse GTSF1.
Summary of the method: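 Reactions were run for 0–8 or 0–960 min at 33 °C in HEPES–potassium acetate buffer, combining 1 nM active affinity-purified piRISC with one synthetic guide, […] transcribed, DNA-blocked target RNA library and, in some cases, 500 nM GTSF1 partner protein. Sequencing of uncleaved targets followed, with normalisation to depth and to weakly complementary targets. Three trials were pooled, k3 was capped at 0.0001 min^-1, and the pre-steady-state cleavage rate was taken from a burst-and-steady-state fit.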
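Further: 1 nM active piRISC with 0.1 nM target library at 33 °C single turnover.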

Sequence | pre-steady-state target cleavage rate
UAGUGACAGUCCUUCGUCUGAGAGAUUAACA | 0.00801 ± 0.0026
UAGUGACAGUCCUUCUCUGAGAUGAUUAACA | 0.0422 ± 0.0057
UAGUGACAGUGCUUGUCUGAGUGAUUAACA | 0.00281 ± 0.0027
UAGUGACACUCCUUCUCUCAGAGAUUAACA | 0.0254 ± 0.0053
UAGUGACUCACCUUCUCUGAGAGAUAUUCA | 0.0272 ± 0.013
UAGUGUGUCACCUUCUCUGAGAGUUUAACA | 0.316 ± 0.078
UAGUGAGUCUCCUUCUCAGAGAGAUUAACA | 0.0772 ± 0.013
UAGUGUGUCACCGUUCUCUGAGAGAUUAACA | 0.122 ± 0.0097
UAGUCUGUCGCCUUCUCUGAGAGAUUAACA | 0.224 ± 0.019
UAGUCUGUCACCUUCUCUGACGAGAUUAACA | 0.0187 ± 0.007
UAGUGACAGACCUUCACAGAGAGAUUAACA | 0.0161 ± 0.0072
UAGUGACAGUGGAACUCUGACAGAUUAACA | < 0.0001
UAGUGACAGUCCUUCUCUGAGAUAUUAACA | 0.0253 ± 0.0072
UAGUGACAGACCUUGUCUGAGAGAUUAUCA | 0.00959 ± 0.007
UAGUGACUCACCAUCUCUGAGAGUUUAACA | 0.0885 ± 0.018
UAGUGACAGUGGAAGUCUGAGAGAUUAAGA | < 0.0001
UAGUGACAGACCAUCUCUGAGAGAUUAUCA | 0.0129 ± 0.0056
UAGUGACAGUGCUUCUCUGACAGAUAAACA | < 0.0001
UAGUGACAGACCUACUCUGAGAGAUUAUCA | 0.032 ± 0.0083
UAGUGACAGUGCUUCUCAGAGACAUUAACA | 0.00484 ± 0.0036
UAGUGACAGUCCUUCUCUGAGAGAAUUAACA | 0.0432 ± 0.012
UAGUGACAGUCCUUCUCUGACAGAUUAACA | 0.00834 ± 0.0028
UAGUGACAGUCCUUCUCUGAGUCUAAUUGA [g10:g20:cont:t1A] | < 0.0001
UAGUGAGUCACCUUCUCUGAGAGAUUUACA | 0.136 ± 0.038

Sequence | pre-steady-state target cleavage rate
UAGUGACAGUGCUACUCUGUGAGAUUAACA | 0.00373 ± 0.0014
UAGUGACAGACCUUCUCAGAGAGAUUAAGA | 0.0161 ± 0.006
UAGUGACAGUGCCUUCUCUGAGAGAUUAACA | 0.0773 ± 0.0049
UAGUGACUCACCUUCACUGAGAGAUUUACA | 0.154 ± 0.027
UAGUGACAGUCUCUUCUCUGAGAGAUUAACA | 0.105 ± 0.019
UAGUGUGUCACCAUCUCAGAGAGAUUAACA | 0.0929 ± 0.0095
UAGUGACAGUGGUUCUCUGAGAGAUUAACCA | 0.0085 ± 0.0022
UAGUGACACACCUAGACUGAGAGAUUAACA | 0.0101 ± 0.0027
UAGUGUUGUCACCUUCUCUGAGAGAUUAACA | 0.221 ± 0.014
UAGUGACAGUGGAAGUCUGAGGAUUAACA | < 0.0001
UAGUCUGUCACCUUCUCUCAGUGAUUAACA | 0.00622 ± 0.0035
UAGUCUGUCACCUUCUCUGUGACAUUAACA | 0.0172 ± 0.005
UAGUGUGUCACCUUGUCUGACAGAUUAACA | 0.0668 ± 0.012
UAGUGACACACCUUCUCUGGAGAUUAACA | 0.00696 ± 0.004
UAGUCUGACACCUUCUCUGAGAGAAUAACA | 0.0874 ± 0.018
UAGUGACAGACCUUCUGUGAGAGAUUUACA | 0.0618 ± 0.022
UAGUGACAGAGCUUCUCUGAGAGAUUUACA | 0.0241 ± 0.01
UAGUGACAGUCCAUCUCUGAGAGAUUAUCA | 0.00419 ± 0.0024
UAGUGACAGUUCUUCUCUGAGAGAUUAACA | 0.0485 ± 0.0046
UAGUGACAGUCCUUCUCUGUGACAUUAACA | 0.00287 ± 0.0021
UAGUGACUCACCUUCUCUCAGAGAUUAACA | 0.0464 ± 0.0037
UAGUGACAGUGCUUCUGUGAGAGAUUAUCA | 0.00666 ± 0.0037
UAGUCCGUCACCUUCUCUGAGAGAUUAACA | 0.228 ± 0.01
UAGUGUGUCACCUUCACUGUGAGAUUAACA | 0.0373 ± 0.0044

Sequence | pre-steady-state target cleavage rate
UAGUGACAGACCUUCUGUGAGAGAUUAACA | 0.087 ± 0.012
UAGUGACACACCUUCUCUGAGAGACUUAACA | 0.118 ± 0.02
UAGUGUGUCACCUCUCUGAGAGAUUAACA | 0.163 ± 0.016
UAGUGAGUCUCCUUCUCUGAGAGUUUAACA | 0.105 ± 0.027
UAGUGAGUCACCUUCUCUGAGAGAUUAGACA | 0.118 ± 0.034
UAGUGACAGACCUUCUCUGAGACAUUAACA | 0.0292 ± 0.0045
UAGUGUGUCACCUUCUCUCUGAGAUUAACA | 0.0138 ± 0.004
UAGUGAGUCGACCUUCUCUGAGAGAUUAACA | 0.11 ± 0.011
UAGUCUGUCUGCUUCUCUGAGAGAUAUUGA | < 0.0001
UAGUGAGACACCUUCUCUGAGAGAUUAAGA | 0.0264 ± 0.011
UAGUGACAGUCCUUCUCUGAGACUUUAACA | < 0.0001
UAGUGAGUCACCUUCUCUGAGAAGAUUAACA | 0.0726 ± 0.013
UAGUGAGUCACCUUCUCUCAGAGAUUAACA | 0.0499 ± 0.0073
UAGUCUUUCACCUUCUCUGAGAGAUUAACA | 0.116 ± 0.015
UAGUGACAGUGCUUCUCAGAGAGAUUAUCA | 0.00319 ± 0.0031
UAGUGACAGAGCUUCUCUGUGAGAUUAACA | 0.0194 ± 0.0071
UAGUGAGUCAGCUUCUCUGACAGAUUAACA | 0.0266 ± 0.0058
UAGUGUGUCACCUUCUCUGAGAGAUUUUCA | 0.119 ± 0.033
UAGUGACUCACCUUCUCUGACAGAUUAAGA | 0.00634 ± 0.004
UAGUGAGUCACCUUCUCUGAGAGAUUAAACA | 0.33 ± 0.049
UAGUGAGUCACCUUCUCUCAGAGAUUUACA | 0.0192 ± 0.0098
UAGUGUGUCACCUGUCUCUGAGAGAUUAACA | 0.175 ± 0.01
UAGUGACAGACCUUCUCUGACAGAUUAACA | 0.0282 ± 0.0053
